Measurements: PubChem BioAssay AID1347417 (National Center for Advancing Translational Sciences (NCATS), 2020)
The campaign covered roughly 120,000 compounds. About 5,300 (4.4%) were called active. Inconclusive results, whose numbers are uncertain, are shown with a selection of clear calls. Calls follow the shape of the dose curve; as a rule, active = well fitted inhibition curve with a large enough effect; inconclusive = small, poorly fitted or top-dose-only effect; inactive = no such curve, though single readings can be large or run the other way. A potency beside an inconclusive call is a rough fit, not a confirmed value.

test: qHTS Primary assay for Inhibitors of Plasmodium falciparum Dd2 growth in vitro; also: nearly all actives have a fitted effect of over 65% in size;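 as to activity, negative = inhibition: plate controls were DMSO vehicle for no effect and reference drug for full effect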; conditions: P. falciparum Dd2 growth, SYBR Green, 72 h; activity, negative = inhibition: at 28.9 µM (top of the series) unless noted; series mostly up to 28.9 µM
Outline: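 Readout: SYBR Green fluorescence, 485 nm excitation, 535 nm emission, after ~16 h lysis at 37C. Before that, Dd2-infected red cells (2.5% hematocrit) grew 72 h with compound, 29 uM top final concentration.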
Potency is read from the fitted curve at half-maximal effect; tags tell the direction and shape of the fitted curve.

Structure (SMILES)	Potency	outcome	activity, negative = inhibition
Cc1nc(-c2ccc(F)cc2)n(CC(=O)Nc2cccc(C#N)c2)c(=O)c1CCO	inconclusive: 2.51 µM [inhibitor, single point]	–	–
COc1ccc(CN2CCc3c(c(=O)n4ncc(C(=O)N5CCN(c6ccccc6OC)CC5)c4n3C)C2)cc1	inconclusive: 10 µM [inhibitor, single point]	–	–
Cc1cn2nc(C(=O)Nc3ccc(N(C)C)cc3)cc2c(N2CCSCC2)n1	inconclusive: 2.24 µM [inhibitor, partial curve, poor fit]	–	–
Cc1ccc(NC(=O)CN2C(=O)c3ccccc3Sc3ccc(C(=O)N4CCOCC4)cc32)cc1F	inconclusive: 17.8 µM [inhibitor, single point]	–	–
Cc1noc(-c2cccs2)c1C(=O)NC(C)c1cccc2ccccc12 (configuration not stated)	inconclusive: 0.0708 µM [inhibitor, full curve, poor fit]	–	–
CCN(Cc1ccncc1)C(=O)C1(Oc2ccc(C)cc2)CCNCC1	inconclusive: 8.91 µM [inhibitor, partial curve]	–	–
O=C(CN1C(=O)NC(c2ccc(Cl)cc2)C2=C1COC2=O)Nc1cc(F)cc(F)c1 (configuration not stated)	inconclusive: 2.51 µM [inhibitor, single point]	–	–
COc1cccc(N2CCN(C(=O)c3ccc(C)c(NC(=O)c4nsc5ccccc45)c3)CC2)c1	inconclusive: 17.8 µM [inhibitor, single point]	–	–
CN1CCCCCC(O)c2cc(C(=O)NCc3nc4ccccc4n3C)ccc21 (configuration not stated)	–	inactive	–
COC(=O)c1ccccc1NC(=O)c1cc(-c2ccccc2O)no1	active: 4.47 µM	–	–
CCOc1ccccc1NC(=O)Cn1c(N2CCc3ccccc3C2)nc(C)cc1=O	inconclusive: 3.98 µM [inhibitor, single point]	–	–
CS(=O)(=O)N1CC2(CCN(CC3CC3)CC2)Cc2ccccc21	inconclusive: 5.62 µM [inhibitor, partial curve]	–	–
O=C(Nc1cccc(-c2nnc3n2CCCC3)c1)c1cc(F)ccc1F	inconclusive: 10 µM [inhibitor, partial curve]	–	–
COc1ccc(-c2cc(-c3ccccc3)c(C#N)c(SCC(O)CS(=O)(=O)Cc3ccc(Cl)cc3)n2)cc1 (configuration not stated)	inconclusive: 10 µM [inhibitor, single point]	–	–
CCCN1CCN(c2ncnc3sc(C(=O)Nc4ccc(C(C)C)cc4)c(C)c23)CC1	inconclusive: 17.8 µM [inhibitor, single point]	–	–
Cc1cc(C(=O)N2CCCCCC2c2nnc(C)o2)n(C)n1 (configuration not stated)	–	–	inactive: 3.37%
CN1CCN(Cc2nnc(C(=O)N3CCC[C@@H]3c3ccc(Br)cc3)n2Cc2ccccc2)CC1	inconclusive: 1.78 µM [inhibitor, full curve]	–	–
CCOc1ccccc1CN1CCC2(CCN(CCC(C)C)CC2)Oc2ccccc21	active: 1 µM	–	–
COc1ccccc1OC(C)C(=O)Nc1cccc(-c2nc3ccccc3s2)c1 (configuration not stated)	inconclusive: 17.8 µM [inhibitor, single point]	–	–
CCOC(=O)c1ccc(NC(=O)c2cnc3c(-c4ccc(F)cc4)c(C)nn3c2C)cc1	–	–	inactive: 49.8%
CCCCCn1c(NCc2ccc(OC)cc2)nc2ccccc21	inconclusive: 10 µM [inhibitor, single point]	–	–

Structure (SMILES)	Potency	outcome	activity, negative = inhibition
CN(C)c1ccc(CN2CCC3(C2)C(=NC2CCCCC2)NC(=O)N3c2cc(F)cc(F)c2)cc1 (configuration not stated)	active: 10 µM	–	–
Cc1cccc(N(C)c2nc3ccccc3c3nnc(C)n23)c1	active: 0.447 µM	–	–
CC(C)C(=O)N1Cc2ccccc2CC2(CCCCN2Cc2ccccn2)C1 (configuration not stated)	active: 12.6 µM	–	–
COc1cccc(-c2cn3c(n2)N(C(=O)Cc2ccccc2)CCC3)c1	inconclusive: 11.2 µM [inhibitor, single point]	–	–
COc1ccc(NC(=O)Cn2cccc2-c2nc(-c3ccc4c(c3)OCO4)no2)cc1	inconclusive: 2.51 µM [inhibitor, full curve, poor fit]	–	–
COc1cccc(NC(=O)Cn2c(-c3ccccc3)nc(C)c(CCO)c2=O)c1	inconclusive: 20 µM [inhibitor, single point]	–	–
Cn1nc(C2CCN(C(=O)COc3ccc(F)cc3)CC2)c2c1CCOC2	–	inactive [at 5.79 µM]	–
COc1ccc(CN2C(=O)COC[C@H]2C(=O)N2CCSCC2)c(OC)c1	–	–	inactive: 30.4%
O=C(c1ccncc1)N1C[C@@H]2OCC(=O)N(Cc3cccnc3)[C@@H]2C1	–	–	inactive: -4.83% [at 44.1 µM]
Cc1ccc2nc3n(c2c1)[C@@H](CNCc1cccnc1)COC3	–	–	inactive: 36.6% [at 44.1 µM]
Cc1ccccc1Cn1nnc2c(=O)[nH]c(C3CCN(C(=O)c4ccc(F)cc4)CC3)nc21	inconclusive: 10 µM [inhibitor, single point]	–	–
Cc1ccccc1-c1cc2c(ccn2C)c(C(=O)NCCc2cnc[nH]2)n1	inconclusive: 31.6 µM [inhibitor, single point]	–	–
CCOc1nccn2c(-c3ccc(CNc4ccc(OC)nc4)cc3)cnc12	inconclusive: 5.62 µM [inhibitor, partial curve, poor fit]	–	–
COCCC(=O)N1CCc2oc(C)c(C(=O)N(C)C)c2C1	–	–	inactive: -12.8%
Cc1cc(C)c(Cn2c3ccccc3c3cnn(CC(=O)NCc4cccs4)c(=O)c32)c(C)c1	–	–	inactive: -14.2%
CN(C)c1ccc(CNC(=O)c2ccc(Cn3c(SCc4ccccc4)nc4cccnc43)cc2)cc1	inconclusive: 11.2 µM [inhibitor, single point]	–	–
CN(Cc1cccnc1)c1ccc2ncc(Nc3cccc(N[S+](C)(=O)[O-])c3)n2n1	inconclusive: 11.2 µM [inhibitor, partial curve]	–	–
CSc1cccc(NC(=O)N2CCC(c3cc(-c4cccc(C)c4)n[nH]3)CC2)c1	inconclusive: 20 µM [inhibitor, single point]	–	–
C=CCn1ncc(CN2CCC(c3nnc(Cn4ccnc4C)n3C)CC2)c1C	–	–	inactive: 3.54%
COc1cccc(C(=O)N2C[C@@H](CO)[C@H](c3nc(C)no3)C2)c1OC	–	–	inactive: -3.3%
CCCCNC(=O)c1cccc(CN2C(=O)CC(c3ccccc3C)C(C(=O)OCC)=C2C)c1 (configuration not stated)	inconclusive: 3.98 µM [inhibitor, partial curve, poor fit]	–	–
